{"source": "the supplement of paper PMC11060735", "note": "Hit rate of the full screen: of about 1,800 compounds, about 50 (3%) showed activity. This is one part of the list.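 Further: fibroblasts sorted 14 days after bleomycin, GFP+ and GFP− mixed 1:1 in 384-well plates (GFP− as in-well control), imaged after Hoechst and NucView530 staining, reference wells lacked compound.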", "data": [{"tested_on": "mouse p16Ink4a+/- lung fibroblasts (INKBRITE, bleomycin-injured)", "experiment": "percentage of GFP+ (p16Ink4a+) fibroblasts among all cells in well; higher = less depletion of p16Ink4a+ cells, active = 20 or less", "details": "1 µM; 3 days", "values": [{"smiles": "Cc1ccc(NCCCc2ccccc2)c(N)c1", "percentage of GFP+": "inactive: 46.1%"}, {"smiles": "CN1CC(=O)N2[C@H](c3ccc4c(c3)OCO4)c3[nH]c4ccccc4c3C[C@@H]2C1=O", "note": "[Tadalafil]", "percentage of GFP+": "inactive: 40.4%"}, {"smiles": "CO[C@H]1/C=C/O[C@@]2(C)Oc3c(C)c(O)c4c(O)c(c5c(c4c3C2=O)=NC2(CCN(CC(C)C)CC2)N=5)NC(=O)/C(C)=C\\C=C\\[C@H](C)[C@H](O)[C@@H](C)[C@@H](O)[C@@H](C)[C@H](OC(C)=O)[C@@H]1C", "note": "[Rifabutin]", "percentage of GFP+": "inactive: 39.9%"}, {"smiles": "COc1cccc2c1C(=O)c1c(O)c3c(c(O)c1C2=O)C[C@@](O)(C(=O)CO)C[C@@H]3O[C@H]1C[C@H](N)[C@H](O)[C@H](C)O1", "note": "[Doxorubicin]", "percentage of GFP+": "inactive: 25.2%"}, {"smiles": "Cc1nnc(C(=O)NC(C)(C)c2nc(C(=O)NCc3ccc(F)cc3)c(O)c(=O)n2C)o1", "note": "[Raltegravir]", "percentage of GFP+": "inactive: 39.5%"}, {"smiles": "Cc1nc2c([nH]1)-c1ccccc1N(C(=O)c1ccc(NC(=O)c3ccccc3-c3ccccc3)cc1)CC2", "note": "[Conivaptan]", "percentage of GFP+": "inactive: 31.8%"}, {"smiles": "Cc1ncc(CO)c(CO)c1O", "note": "[Pyridoxine]", "percentage of GFP+": "inactive: 41.4%"}, {"smiles": "C[C@H](O)[C@H](O)[C@@H](O)[C@@H](O)C=O", "note": "[L-(+)-Rhamnose Monohydrate]", "percentage of GFP+": "inactive: 47%"}, {"smiles": "CC(C)(C#N)c1cc(Cn2cncn2)cc(C(C)(C)C#N)c1", "note": "[Anastrozole]", "percentage of GFP+": "inactive: 45.5%"}, {"smiles": "C[C@@]1(C(=O)Nc2ccc(F)nc2)CCCN1c1nc(Nc2cc(C3CC3)[nH]n2)c2cccn2n1", "percentage of GFP+": "inactive: 36.7%"}, {"smiles": "O=C(NOCC(O)CO)c1cc(Br)c(F)c(F)c1Nc1ccc(I)cc1F", "note": "(stereo not given)", "percentage of GFP+": "inactive: 36.5%"}, {"smiles": "CC[C@H](NC(=O)[C@H](C)NC)C(=O)N1C[C@@H](O)C[C@H]1Cc1c(-c2[nH]c3cc(F)ccc3c2C[C@@H]2C[C@H](O)CN2C(=O)[C@H](CC)NC(=O)[C@H](C)NC)[nH]c2cc(F)ccc12", "note": "[Birinapant]", "percentage of GFP+": "inactive: 38.6%"}, {"smiles": "CCN1CCC[C@H]1CNC(=O)c1cc(S(N)(=O)=O)ccc1OC", "note": "[Levosulpiride]", "percentage of GFP+": "inactive: 43.5%"}, {"smiles": "NC(=O)N1c2ccccc2C=Cc2ccccc21", "note": "[Carbamazepine]", "percentage of GFP+": "inactive: 46.9%"}, {"smiles": "CC(=O)[C@H]1CC[C@H]2[C@@H]3CCC4=CC(=O)CC[C@]4(C)[C@H]3CC[C@]12C", "note": "[Progesterone]", "percentage of GFP+": "inactive: 51%"}, {"smiles": "Nc1cccc(-c2cc3c(Oc4cccc(O)c4)ncnc3[nH]2)c1", "percentage of GFP+": "inactive: 32%"}, {"smiles": "CN1C(=O)C(Cc2c[nH]c3ccccc23)NC1=S", "note": "(stereo not given) [Necrostatin-1]", "percentage of GFP+": "inactive: 47.6%"}, {"smiles": "Oc1nc2ccccc2n1CCCN1CCC(n2c(O)nc3cc(Cl)ccc32)CC1", "note": "[Domperidone]", "percentage of GFP+": "inactive: 46.3%"}, {"smiles": "O=C(/C=C/c1ccccc1)NC(NC(=S)Nc1ccc(Cl)cc1)C(Cl)(Cl)Cl", "note": "(stereo not given)", "percentage of GFP+": "inactive: 58.3%"}, {"smiles": "N[C@@H](Cc1cc(I)c(Oc2cc(I)c(O)c(I)c2)c(I)c1)C(=O)O", "note": "[Thyroxine, Levothyroxine]", "percentage of GFP+": "inactive: 38.8%"}, {"smiles": "Oc1ccc(OC2CCCCO2)cc1", "note": "(stereo not given) [Deoxyarbutin]", "percentage of GFP+": "inactive: 49.7%"}, {"smiles": "CCCCCOC(=O)Nc1nc(=O)n([C@@H]2O[C@H](C)[C@@H](O)[C@H]2O)cc1F", "note": "[Capecitabine]", "percentage of GFP+": "inactive: 40.5%"}, {"smiles": "COc1cccc(-c2cc(=O)c3ccccc3o2)c1N", "percentage of GFP+": "inactive: 54%"}, {"smiles": "CC(=O)O[C@@]12CO[C@@H]1C[C@H](O)[C@@]1(C)C(=O)[C@H](O)C3=C(C)[C@@H](OC(=O)[C@H](O)[C@@H](NC(=O)OC(C)(C)C)c4ccccc4)C[C@@](O)([C@@H](OC(=O)c4ccccc4)[C@H]21)C3(C)C", "note": "[Docetaxel]", "percentage of GFP+": "inactive: 35.5%"}, {"smiles": "CCn1c(=O)c2c(nc(/C=C/c3ccc(OC)c(OC)c3)n2C)n(CC)c1=O", "note": "[Istradefylline]", "percentage of GFP+": "inactive: 55%"}, {"smiles": "CO[C@H]1C[C@@H]2CC[C@@H](C)[C@@](O)(O2)C(=O)C(=O)N2CCCC[C@H]2C(=O)O[C@H]([C@H](C)C[C@@H]2CC[C@@H](OCCO)[C@H](OC)C2)CC(=O)[C@H](C)/C=C(\\C)[C@@H](O)[C@@H](OC)C(=O)[C@H](C)C[C@H](C)/C=C/C=C/C=C/1C", "note": "[Everolimus]", "percentage of GFP+": "inactive: 29.7%"}, {"smiles": "CCc1ccc(/C=C2/SC(=S)NC2=O)cc1", "percentage of GFP+": "inactive: 50.8%"}, {"smiles": "O=C(O)CC1CC(c2ccccc2)=NO1", "note": "(stereo not given)", "percentage of GFP+": "inactive: 53.4%"}, {"smiles": "Nc1nc(N)c2nc(-c3cccc(O)c3)c(-c3cccc(O)c3)nc2n1", "percentage of GFP+": "inactive: 33.6%"}, {"smiles": "CC(C)c1ccccc1Cc1cc(C(=O)Nc2ccc(S(=O)(=O)c3ccccc3C(C)(C)C)cc2)c(O)c(O)c1O", "percentage of GFP+": "active: 16.4%"}, {"smiles": "Cc1cnc(NC(=O)C2=C(O)c3ccccc3S(=O)(=O)N2C)s1", "note": "[Meloxicam]", "percentage of GFP+": "inactive: 39.9%"}, {"smiles": "O=C1C(=O)N(Cc2ccc(Cl)c(Cl)c2)c2ccccc21", "note": "[Apoptosis Activator 2]", "percentage of GFP+": "inactive: 49.6%"}, {"smiles": "CCC(CC)(NC(=O)C(C)C)C(=O)N[C@@H](CCCN=C(N)N)C(=O)NC1(C(=O)NC(c2ccc(F)cc2)c2ccc(F)cc2)CCCC1", "percentage of GFP+": "inactive: 42%"}, {"smiles": "NC(=O)c1ccc(N(C(N)=O)c2c(F)cccc2F)nc1-c1ccc(F)cc1F", "percentage of GFP+": "inactive: 53.1%"}, {"smiles": "COC[C@H](NC(=O)c1cnc(C)s1)C(=O)N[C@@H](COC)C(=O)N[C@@H](Cc1ccccc1)C(=O)C1(C)CO1", "note": "(stereo not given in full) [Oprozomib]", "percentage of GFP+": "active: 5.21%"}, {"smiles": "COc1ccc(-c2cc(=O)c3c(OC)c(OC)c(OC)c(OC)c3o2)cc1OC", "note": "[Nobiletin]", "percentage of GFP+": "inactive: 46%"}, {"smiles": "Cc1ccc(Nc2c(F)cccc2Cl)c(CC(=O)O)c1", "note": "[Lumiracoxib]", "percentage of GFP+": "inactive: 42.8%"}, {"smiles": "CCCCC(=O)O[C@H]1CC[C@H]2[C@@H]3CCc4cc(O)ccc4[C@H]3CC[C@]12C", "note": "[Estradiol valerate]", "percentage of GFP+": "inactive: 47.9%"}, {"smiles": "COc1cc(N2CCN(C)CC2)ccc1Nc1nccc(-c2cn(C)c3cnccc23)n1", "percentage of GFP+": "inactive: 46.2%"}, {"smiles": "CO[C@H]1/C=C/O[C@@]2(C)Oc3c(C)c(O)c4c(O)c(c(/C=N/N5CCN(C)CC5)c(O)c4c3C2=O)NC(=O)/C(C)=C\\C=C\\[C@H](C)[C@H](O)[C@@H](C)[C@@H](O)[C@@H](C)[C@H](OC(C)=O)[C@@H]1C", "note": "[Rifampicin]", "percentage of GFP+": "inactive: 45.9%"}]}]}
